For two substances, binding results are on record in article PMC5111114.

Sequences of proteins named here, by UniProt entry; tags and fusion partners are left off. A change or cut given only in a name is not applied to a line headed by its entry.
UniProt P12956: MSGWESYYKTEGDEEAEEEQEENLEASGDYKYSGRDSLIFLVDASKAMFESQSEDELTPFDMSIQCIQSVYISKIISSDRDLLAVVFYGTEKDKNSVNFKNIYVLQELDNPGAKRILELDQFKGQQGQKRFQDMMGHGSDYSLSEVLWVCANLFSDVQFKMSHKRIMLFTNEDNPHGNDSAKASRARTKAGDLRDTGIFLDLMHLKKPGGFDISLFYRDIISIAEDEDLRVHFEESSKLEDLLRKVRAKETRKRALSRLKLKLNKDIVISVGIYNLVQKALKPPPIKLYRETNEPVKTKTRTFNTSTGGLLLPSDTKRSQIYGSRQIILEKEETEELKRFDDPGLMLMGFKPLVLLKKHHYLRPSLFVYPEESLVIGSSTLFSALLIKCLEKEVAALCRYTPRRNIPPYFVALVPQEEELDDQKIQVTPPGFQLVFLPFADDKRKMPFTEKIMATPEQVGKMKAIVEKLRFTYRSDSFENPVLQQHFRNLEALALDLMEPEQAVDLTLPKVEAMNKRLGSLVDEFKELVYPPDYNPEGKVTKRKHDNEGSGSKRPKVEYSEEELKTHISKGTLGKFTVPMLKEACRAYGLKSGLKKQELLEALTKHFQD
UniProt O70126: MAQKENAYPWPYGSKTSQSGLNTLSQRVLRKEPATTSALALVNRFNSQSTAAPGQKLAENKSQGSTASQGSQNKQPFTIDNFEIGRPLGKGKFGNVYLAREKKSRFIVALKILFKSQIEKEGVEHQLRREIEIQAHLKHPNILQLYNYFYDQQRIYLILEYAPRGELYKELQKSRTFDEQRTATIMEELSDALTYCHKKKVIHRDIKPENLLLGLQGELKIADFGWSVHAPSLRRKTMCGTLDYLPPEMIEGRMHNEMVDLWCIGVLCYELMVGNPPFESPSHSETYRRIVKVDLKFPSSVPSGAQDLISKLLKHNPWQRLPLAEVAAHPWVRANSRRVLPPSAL
UniProt Q96GD4: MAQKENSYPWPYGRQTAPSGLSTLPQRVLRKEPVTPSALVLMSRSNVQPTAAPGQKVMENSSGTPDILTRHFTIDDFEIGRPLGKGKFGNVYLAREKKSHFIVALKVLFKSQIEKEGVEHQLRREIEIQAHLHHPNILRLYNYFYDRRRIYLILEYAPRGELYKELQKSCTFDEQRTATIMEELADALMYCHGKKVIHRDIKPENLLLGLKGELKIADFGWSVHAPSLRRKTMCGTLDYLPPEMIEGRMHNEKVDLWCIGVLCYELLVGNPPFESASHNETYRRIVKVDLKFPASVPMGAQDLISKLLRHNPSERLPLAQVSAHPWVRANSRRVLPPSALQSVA

These are yes or no findings as the source states them, for the method shown. Binding seen in cells or lysates may run through a third protein. Some results given as binding are weak or reduced against the parent protein; the word gives no strength.

The target of assay [1] is Ku70 S155A expressed in Ku70-/- MEFs (UniProt P12956). The experiment in a line: proximity ligation; in situ PLA (Duolink) in fixed, untreated MEFs with antibodies to Ku70 and Aurora B; signal relative to Ku70 KO cells.
Assay [2] addresses Ku70 S155D (full length) expressed in Ku70-/- MEFs (UniProt P12956). The description is as above.
For assay [3], the target named is Ku70 WT re-expressed in Ku70-/- MEFs (UniProt P12956). In words: co-IP; cells (MEFs, Hela) treated with IR (40 Gy), extracts prepared after 30 min; immunoprecipitation with a Ku70 antibody; western blot for Ku70 and Aurora B. (Immunoblotting shows a protein as a band on a membrane.)
Assay [4] addresses Ku70 S155A expressed in Ku70-/- MEFs (UniProt P12956). In words: proximity ligation; in situ PLA (Duolink) in MEFs treated with 10 Gy of IR and fixed after 30 min, antibodies to Ku70 and Aurora B; signal relative to Ku70 KO cells.
The target of assay [5] is Ku70 WT re-expressed in Ku70-/- MEFs (UniProt P12956). Described as above.
Assay [6] addresses Ku70 S155D (full length) expressed in Ku70-/- MEFs (UniProt P12956). In words: co-IP; cells not irradiated (MEFs, Hela); extracts adjusted to 0.15% NP-40 and 100 mM KCl, 4 °C, Ku70 antibody (N3H10), Protein G magnetic beads; western blot for Ku70 and Aurora B.
Assay [7] has as its target Ku70 WT re-expressed in Ku70-/- MEFs (UniProt P12956). The description is as above.
Assay [8] deals with biotin-conjugated Ku70 S155D peptide (loop region surrounding S155, aa 145 to 163) (UniProt P12956). The experiment in a line: pull-down; biotin-streptavidin pull-down with biotin-conjugated Ku70 S155A or S155D peptides and untreated WT Ku70 MEF extracts; western blot for Aurora B; only the target purified.
Assay [9] deals with Ku70 WT re-expressed in Ku70-/- MEFs (UniProt P12956). In words: co-IP; cells not irradiated (MEFs, Hela); extracts adjusted to 0.15% NP-40 and 100 mM KCl, 4 °C, Ku70 antibody (N3H10), Protein G magnetic beads; western blot for Ku70 and Aurora B. This is another data set of the same source.
Assay [10] has the same target. In words: condition: only cells not irradiated (no DNA damage); proximity ligation; in situ PLA (Duolink) in fixed, untreated MEFs with antibodies to Ku70 and Aurora B; signal relative to Ku70 KO cells.
In assay [11] the target is Ku70 (endogenous, Hela cells) (human (endogenous in Hela)) (UniProt P12956). In words: co-IP; cells (MEFs, Hela) treated with IR (40 Gy), extracts prepared after 30 min; immunoprecipitation with a Ku70 antibody; western blot for Ku70 and Aurora B.
Assay [12] has the same target. In words: co-IP; cells not irradiated (MEFs, Hela); extracts adjusted to 0.15% NP-40 and 100 mM KCl, 4 °C, Ku70 antibody (N3H10), Protein G magnetic beads; western blot for Ku70 and Aurora B.

Consider “Aurora B (endogenous, mouse embryonic fibroblasts) (from UniProt O70126 1-345) (enzyme)”, for which the binding entry in assay [1] is “no binding”; in assay [2] it was “binds”; in [3], “binds”; in [4], “no binding”; in assay [5], “binds”; in assay [6] it was “binds”. In addition, the binding result in assay [7] was “binds weakly”; in [8], “binds”; in assay [9], “no binding (condition: cells not irradiated (no IR))”; in assay [10], “no binding”.

In the case of “Aurora B (endogenous, Hela cells) (from UniProt Q96GD4 1-344) (enzyme)”, the values for the binding entry in assay [11] and in assay [12] were “binds” and “no binding (condition: cells not irradiated (no IR))”, respectively.
